Reference: the supplement of paper PMC4967469
Lines with a small IC50 respond at low doses; a fit beyond the top or the lowest dose is shown as a bound at that dose. AUC sums up the same curve from the lowest dose to the 256-fold higher top dose; it is 1 without any effect and falls as sensitivity rises. For part of these data: The top dose, if marked as inferred, is not printed in the source and was worked back from the curve model. For part of these data: Where an entry number is given, a second screen of the drug exists; the two often differ.

Key:
Assay in all cases: Viability of human cancer cell lines after 72 h of drug (GDSC screen)
[1] = compound: CCc1nc(N)nc(N)c1-c1ccc(Cl)cc1 [Pyrimethamine]; settings: top dose 20 µM; top dose inferred
Experimental: (§1)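 Human cancer cell lines in 384-well plates, medium with 10% serum, drug for 72 h over a 256-fold dose range (nine 2-fold or five 4-fold steps up to the top dose). Adherent lines were fixed and stained with the nucleic acid dye Syto60, suspension lines read with resazurin; signal relative to control wells, capped at 0 and 100%. One two-parameter sigmoid per drug and line, fitted in a mixed model over all curves with the slope shared within a line.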

[2] = compound: CCCS(=O)(=O)Nc1ccc(F)c(C(=O)c2c[nH]c3ncc(Cl)cc23)c1F [PLX4720]; settings: top dose 10 µM
Experimental: as §1

[3] = compound: CC(C)CC(=O)Nc1n[nH]c2c1CN(C(=O)C1CCN(C)CC1)C2(C)C [PHA-793887]; settings: top dose 10.24 µM
Experimental: as §1

[4] = compound: CN1CCN(CCOc2cc(OC3CCOCC3)c3c(Nc4c(Cl)ccc5c4OCO5)ncnc3c2)CC1 [AZD-0530]; settings: top dose 2 µM
Experimental: as §1

[5] = compound: C[C@@H](N)c1ccc(C(=O)Nc2ccnc3[nH]ccc23)cc1 [Y-39983]; settings: top dose 20 µM; top dose inferred
Experimental: as §1

[6] = compound: NC(=O)Nc1sc(-c2ccc(F)cc2)cc1C(N)=O [TPCA-1]; settings: top dose 20 µM
Experimental: as §1

[7] = compound: C/C(=C\c1csc(C)n1)[C@@H]1C[C@@H]2O[C@]2(C)CCC[C@H](C)[C@H](O)[C@@H](C)C(=O)C(C)(C)[C@@H](O)CC(=O)O1 [Epothilone B]; settings: top dose 0.032 µM; top dose inferred
Experimental: as §1

[8] = screen: GDSC drug entry 1371, top dose inferred

Cell Line	AUC [1]	IC50 [1]	AUC ([2]; screen: GDSC drug entry 1036)	IC50 ([2]; screen: GDSC drug entry 1036)	AUC [2, 8]	IC50 [2, 8]	AUC [3]	IC50 [3]	AUC [4]	IC50 [4]	AUC [5]	IC50 [5]	AUC [6]	IC50 [6]	AUC [7]	IC50 [7]
RH-1 (rhabdomyosarcoma, adherent)	0.966	> 20 µM	0.967	> 10 µM	0.985	> 10 µM	0.701	2.1 µM	0.991	> 2 µM	0.866	13.2 µM	0.575	1.94 µM	0.341	0.000786 µM
RKO (large intestine, adherent)	0.925	> 20 µM	0.973	> 10 µM	0.957	> 10 µM	0.711	2.4 µM	0.983	> 2 µM	0.961	> 20 µM	0.893	> 20 µM	0.233	0.000362 µM
RL (B-cell lymphoma, suspension)	0.966	> 20 µM	0.986	> 10 µM	0.931	> 10 µM	0.488	0.594 µM	0.985	> 2 µM	0.936	> 20 µM	0.773	7.15 µM	0.982	> 0.032 µM
RPMI-6666 (Hodgkin lymphoma, suspension)	0.83	16.3 µM	0.951	> 10 µM	0.945	> 10 µM	0.322	0.183 µM	0.876	> 2 µM	0.857	> 20 µM	0.392	0.595 µM	0.468	0.00161 µM
RPMI-8226 (myeloma, suspension)	0.948	> 20 µM	0.962	> 10 µM	0.985	> 10 µM	0.407	0.368 µM	0.99	> 2 µM	0.948	> 20 µM	0.89	17.7 µM	0.587	0.00334 µM
RPMI-8402 (T-cell lymphoblastic leukaemia, suspension)	0.809	8.48 µM	0.986	> 10 µM	0.971	> 10 µM	0.429	0.424 µM	0.969	> 2 µM	0.719	4.63 µM	0.604	2.3 µM	0.663	0.00522 µM
RPMI-8866 (chronic myeloid leukaemia, suspension)	0.809	9.53 µM	0.787	4.02 µM	0.899	> 10 µM	0.408	0.366 µM	0.988	> 2 µM	0.86	14.9 µM	0.457	0.964 µM	0.852	0.022 µM
RS4-11 (leukaemia, suspension)	0.952	> 20 µM	0.909	> 10 µM	0.98	> 10 µM	0.124	0.0471 µM	0.989	> 2 µM	0.849	13.1 µM	0.699	4.28 µM	0.504	0.00205 µM
RXF393 (kidney, adherent)	0.878	> 20 µM	0.95	> 10 µM	0.962	> 10 µM	0.744	4.32 µM	0.811	1.61 µM	0.747	8.64 µM	0.84	> 20 µM	0.581	0.00362 µM
Ramos-2G6-4C10 (Burkitt lymphoma, suspension)	0.742	5.43 µM	0.952	> 10 µM	0.99	> 10 µM	0.482	0.577 µM	0.964	> 2 µM	0.657	3.18 µM	0.646	2.97 µM	0.709	0.007 µM
SBC-1 (small cell lung carcinoma, suspension)	0.972	> 20 µM	0.988	> 10 µM	0.988	> 10 µM	0.537	0.802 µM	0.984	> 2 µM	0.989	> 20 µM	0.91	> 20 µM	0.945	> 0.032 µM
SF126 (glioma, adherent)	0.863	18.9 µM	0.986	> 10 µM	0.984	> 10 µM	0.974	> 10.2 µM	0.883	> 2 µM	0.94	> 20 µM	0.873	> 20 µM	0.598	0.00377 µM
SF268 (glioma, adherent)	0.683	4.24 µM	0.985	> 10 µM	0.977	> 10 µM	0.675	2.05 µM	0.935	> 2 µM	0.885	> 20 µM	0.878	> 20 µM	0.596	0.00375 µM
SH-4 (melanoma, adherent)	0.932	> 20 µM	0.485	0.556 µM	0.447		0.964	> 10.2 µM	0.852	> 2 µM	0.935	> 20 µM	0.834	> 20 µM	0.617	0.00503 µM
SHP-77 (small cell lung carcinoma, semi-adherent)	0.918	> 20 µM	0.989	> 10 µM	0.991	> 10 µM	0.979	> 10.2 µM	0.97	> 2 µM	0.955	> 20 µM	0.927	> 20 µM	0.611	0.0039 µM
SIMA (neuroblastoma, adherent)	0.935	> 20 µM	0.985	> 10 µM	0.984	> 10 µM	0.944	> 10.2 µM	0.978	> 2 µM	0.962	> 20 µM	0.775	9 µM	0.812	0.0201 µM
SJSA-1 (bone, adherent)	0.658	3.66 µM	0.978	> 10 µM	0.982	> 10 µM	0.795	5.44 µM	0.975	> 2 µM	0.916	> 20 µM	0.915	> 20 µM	0.546	0.00271 µM

Cell Line	AUC [1]	IC50 [1]	AUC ([2]; screen: GDSC drug entry 1036)	IC50 ([2]; screen: GDSC drug entry 1036)	AUC [2, 8]	IC50 [2, 8]	AUC [3]	IC50 [3]	AUC [4]	IC50 [4]	AUC [5]	IC50 [5]	AUC [6]	IC50 [6]	AUC [7]	IC50 [7]
SK-ES-1 (Ewing sarcoma, semi-adherent)	0.656	3.49 µM	0.919	> 10 µM	0.97	> 10 µM	0.706	2.55 µM	0.984	> 2 µM	0.931	> 20 µM	0.728	5.83 µM	0.614	0.00421 µM
SK-LMS-1 (soft tissue, adherent)	0.968	> 20 µM	0.944	> 10 µM	0.924	> 10 µM	0.896	> 10.2 µM	0.987	> 2 µM	0.935	> 20 µM	0.809	9.82 µM	0.342	0.000746 µM
SK-MEL-1 (melanoma, suspension)	0.985	> 20 µM	0.573	0.959 µM	0.838	5.51 µM	0.993	> 10.2 µM	0.989	> 2 µM	0.992	> 20 µM	0.944	> 20 µM	0.993	> 0.032 µM
SK-MM-2 (myeloma, suspension)	0.979	> 20 µM	0.986	> 10 µM	0.986	> 10 µM	0.851	8.38 µM	0.987	> 2 µM	0.869	19.8 µM	0.709	5.02 µM	0.815	0.0187 µM
SK-N-DZ (neuroblastoma, adherent)	0.943	> 20 µM			0.974	> 10 µM	0.988	> 10.2 µM	0.869	1.81 µM	0.942	> 20 µM	0.872	18.6 µM	0.704	0.00742 µM
SK-N-FI (neuroblastoma, adherent)	0.986	> 20 µM	0.99	> 10 µM	0.988	> 10 µM	0.977	> 10.2 µM	0.98	> 2 µM	0.987	> 20 µM	0.896	> 20 µM	0.978	> 0.032 µM
SK-PN-DW (Ewing sarcoma, adherent)	0.942	> 20 µM	0.906	> 10 µM	0.979	> 10 µM	0.75	3.46 µM	0.963	> 2 µM	0.905	> 20 µM	0.623	2.76 µM	0.454	0.00149 µM
SK-UT-1 (soft tissue, adherent)	0.979	> 20 µM	0.938	> 10 µM	0.98	> 10 µM	0.908	> 10.2 µM	0.967	> 2 µM	0.981	> 20 µM	0.987	> 20 µM	0.335	0.000731 µM
SLVL (B-cell lymphoma, suspension)	0.679	4.09 µM	0.979	> 10 µM	0.972	> 10 µM	0.483	0.575 µM	0.985	> 2 µM	0.887	> 20 µM	0.654	3.43 µM	0.725	0.00912 µM
SNB75 (glioma, adherent)	0.866	> 20 µM	0.971	> 10 µM	0.973	> 10 µM	0.921	> 10.2 µM	0.848	> 2 µM	0.832	> 20 µM	0.899	> 20 µM	0.539	0.00268 µM
SNU-C1 (large intestine, suspension)	0.904	> 20 µM	0.905	> 10 µM	0.97	> 10 µM	0.97	> 10.2 µM	0.958	> 2 µM	0.963	> 20 µM	0.923	> 20 µM	0.902	> 0.032 µM
SR (lymphoid neoplasm, suspension)	0.882	17.6 µM			0.919	> 10 µM	0.366	0.285 µM	0.962	> 2 µM	0.218	0.209 µM	0.456	0.961 µM	0.508	0.0021 µM
SU-DHL-4 (B-cell lymphoma, suspension)	0.785	6.19 µM	0.994	> 10 µM	0.997	> 10 µM	0.831	4.16 µM	0.925	1.54 µM	0.927	15.7 µM	0.847	8.94 µM	0.94	0.0282 µM
SU-DHL-6 (B-cell lymphoma, suspension)	0.755	5.3 µM	0.976	> 10 µM	0.995	> 10 µM	0.188	0.107 µM	0.859	1.02 µM	0.876	11.5 µM	0.54	1.57 µM	0.511	0.00212 µM
SU-DHL-8 (B-cell lymphoma, suspension)	0.801	9 µM	0.984	> 10 µM	0.965	> 10 µM	0.621	1.35 µM	0.98	> 2 µM	0.562	1.82 µM	0.607	2.41 µM	0.709	0.00742 µM
SU-DHL-16 (B-cell lymphoma, suspension)	0.932	17.1 µM	0.991	> 10 µM	0.992	> 10 µM	0.068	0.0465 µM	0.938	1.82 µM	0.616	2.39 µM	0.32	0.457 µM	0.435	0.00139 µM
SUP-B15 (lymphoblastic leukaemia, suspension)	0.892	> 20 µM	0.968	> 10 µM			0.667	1.83 µM	0.77	0.732 µM	0.915	> 20 µM	0.683	3.97 µM	0.478	0.00175 µM
